The source of these data is a collection of fitness landscapes (doi:10.1126/science.1257360).

The other results are listed elsewhere or left out. Some results are limits rather than exact numbers.

B1: PhoQ; a variant is named by its letters at X, in order, P23837 (parent)
chain: MKKLLRLFFPLSLRVRFLLATAAVVLVLSLAYGMVALIGYSVSFDKTTFRLLRGESNLFYTLAKWENNKLHVELPENIDKQSPTMTLIYDENGQLLWAQRDVPWLMKMIQPDWLKSNGFHEIEADVNDTSLLLSGDHSIQQQLQEVREDDDDAEMTHSVAVNVYPATSRMPKLTIVVVDTIPVELKSSYMVWSWFIYVLSANLLLVIPLLWVAAWWSLRPIEALAKEVRELEEHNRELLNPATTRELTSLVRNLNRLLKSERERYDKYRTTLTDLTHSLKTPLXXLQXXLRSLRSEKMSVSDAEPVMLEQISRISQQIGYYLHRASMRGGTLLSRELHPVAPLLDNLTSALNKVYQRKGVNISLDISPEISFVGEQNDFVEVMGNVLDNACKYCLEFVEISARQTDEHLYIVVEDDGPGIPLSKREVIFDRGQRVDTLRPGQGVGLAVAREITEQYEGKIVAGESMLGGARMEVIFGRQHSAPKDE

Variants of B1 are the subject of the experiment. Put plainly: enrichment ratio after two sorts for PhoP signalling (ratio (wild type AVST 3.29)); higher = more functional. To be noted: with PhoP (E. coli).
With RDVW, the enrichment ratio is ≤ 0.25.

As for EFPP, the enrichment ratio is ≤ 0.25.

On to DTRW, for which the enrichment ratio is ≤ 0.25.

For PSPR, the enrichment ratio was ≤ 0.25.

On to SHCR, for which the enrichment ratio is ≤ 0.25.

As to FRPG, the enrichment ratio is ≤ 0.25.

KLHT: the enrichment ratio was ≤ 0.25.

With RVQK, the enrichment ratio is ≤ 0.25.

With DVRI, the enrichment ratio was ≤ 0.25.

As for IGMI, the enrichment ratio came to 3.17.

On to NYWG, for which the enrichment ratio is ≤ 0.25.

For STMW, the enrichment ratio came out at 9.94.

As to KLII, the enrichment ratio was ≤ 0.25.

On to GCIW, for which the enrichment ratio was ≤ 0.25.

With VSWW, the enrichment ratio is ≤ 0.25.

On to SDMH, for which the enrichment ratio is 3.34.

As to LESK, the enrichment ratio is ≤ 0.25.

Take YEKQ: the enrichment ratio was ≤ 0.25.

Turning to KPIQ, the enrichment ratio was ≤ 0.25.

On to WVPY, for which the enrichment ratio is ≤ 0.25.

Take NASI: the enrichment ratio is ≤ 0.25.

As for WFGS, the enrichment ratio is ≤ 0.25.

Take GFKE: the enrichment ratio was ≤ 0.25.

As for LRVQ, the enrichment ratio is ≤ 0.25.

On to MSRA, for which the enrichment ratio is ≤ 0.25.

For QITG, the enrichment ratio is ≤ 0.25.

KYKD: the enrichment ratio was ≤ 0.25.

Take DAVG: the enrichment ratio was ≤ 0.25.

In the case of TGCK, the enrichment ratio was determined as 37.2.

For the variant SLLF, the enrichment ratio is 0.885.

As to LPEL, the enrichment ratio was ≤ 0.25.

For MSDT, the enrichment ratio was ≤ 0.25.

For IPGS, the enrichment ratio is ≤ 0.25.

In the case of NRIR, the enrichment ratio is ≤ 0.25.

Regarding KTCI, the enrichment ratio was ≤ 0.25.

Regarding HKVE, the enrichment ratio was ≤ 0.25.

Take MLTE: the enrichment ratio was ≤ 0.25.

In the case of MGHM, the enrichment ratio stood at 5.76.

In the case of FGSW, the enrichment ratio is ≤ 0.25.

On to FGTN, for which the enrichment ratio is ≤ 0.25.

Consider NFWN, for which the enrichment ratio is ≤ 0.25.

As for PEQK, the enrichment ratio was ≤ 0.25.

Consider GIHV, for which the enrichment ratio is ≤ 0.25.

TEKS: the enrichment ratio was ≤ 0.25.

Turning to NSVF, the enrichment ratio is ≤ 0.25.

Regarding FHKQ, the enrichment ratio is ≤ 0.25.

MITN: the enrichment ratio was ≤ 0.25.

ATIW: the enrichment ratio was ≤ 0.25.

Consider SYFP, for which the enrichment ratio was ≤ 0.25.

For IRIK, the enrichment ratio was ≤ 0.25.

In the case of LDPP, the enrichment ratio was ≤ 0.25.

As to NPLR, the enrichment ratio was ≤ 0.25.

As to WSSE, the enrichment ratio was ≤ 0.25.

AWKP: the enrichment ratio was ≤ 0.25.

QLWV: the enrichment ratio is ≤ 0.25.

With LRNM, the enrichment ratio was ≤ 0.25.

CPHF: the enrichment ratio was ≤ 0.25.

Regarding GMTE, the enrichment ratio was ≤ 0.25.

For KTSF, the enrichment ratio was ≤ 0.25.

As for QVPP, the enrichment ratio was ≤ 0.25.

NEHP: the enrichment ratio was ≤ 0.25.

For AKTW, the enrichment ratio is ≤ 0.25.

As to VRPM, the enrichment ratio was ≤ 0.25.

Turning to VNNE, the enrichment ratio was ≤ 0.25.

IWLG: the enrichment ratio was ≤ 0.25.

For the variant EGVY, the enrichment ratio is ≤ 0.25.

On to TDHY, for which the enrichment ratio is ≤ 0.25.

Take DFLT: the enrichment ratio was ≤ 0.25.

On to DFET, for which the enrichment ratio is ≤ 0.25.

With VMFL, the enrichment ratio was ≤ 0.25.

For the variant LEGA, the enrichment ratio was ≤ 0.25.

Turning to IFLV, the enrichment ratio is ≤ 0.25.

On to NKTW, for which the enrichment ratio was ≤ 0.25.

As for KNRT, the enrichment ratio is ≤ 0.25.

Take KYPT: the enrichment ratio is ≤ 0.25.

As to FSGM, the enrichment ratio was ≤ 0.25.

Turning to WMFM, the enrichment ratio is ≤ 0.25.

As to TIDM, the enrichment ratio is ≤ 0.25.

On to DLFK, for which the enrichment ratio was ≤ 0.25.

Take ADCY: the enrichment ratio is ≤ 0.25.

On to RRWP, for which the enrichment ratio was ≤ 0.25.

With KCNF, the enrichment ratio was ≤ 0.25.

With MEGF, the enrichment ratio is ≤ 0.25.

With YDCR, the enrichment ratio is ≤ 0.25.

As to EIYH, the enrichment ratio is ≤ 0.25.

As for IQQD, the enrichment ratio is ≤ 0.25.

Regarding HESV, the enrichment ratio is ≤ 0.25.

Take DHVH: the enrichment ratio was ≤ 0.25.

TSYI: the enrichment ratio is 6.42.

In the case of RAGD, the enrichment ratio is ≤ 0.25.

For LLSH, the enrichment ratio was ≤ 0.25.

For the variant FMFC, the enrichment ratio was ≤ 0.25.

In the case of IGLE, the enrichment ratio is ≤ 0.25.

Take AKQI: the enrichment ratio was ≤ 0.25.

Consider VTKP, for which the enrichment ratio was ≤ 0.25.

For the variant LLCQ, the enrichment ratio was ≤ 0.25.

As to PMLG, the enrichment ratio is ≤ 0.25.

In the case of VCGP, the enrichment ratio is ≤ 0.25.

Take QRLE: the enrichment ratio was ≤ 0.25.

For NMAM, the enrichment ratio was ≤ 0.25.

Take LSPY: the enrichment ratio was ≤ 0.25.

On to IIRI, for which the enrichment ratio was ≤ 0.25.

Consider HYRS, for which the enrichment ratio is ≤ 0.25.

ETSK: the enrichment ratio is ≤ 0.25.

Consider YEYP, for which the enrichment ratio was ≤ 0.25.

For the variant RGHL, the enrichment ratio turned out to be 0.34.

Turning to VRAQ, the enrichment ratio was ≤ 0.25.

As to HELW, the enrichment ratio is ≤ 0.25.

In the case of WYRW, the enrichment ratio is ≤ 0.25.

On to YHRW, for which the enrichment ratio is ≤ 0.25.

As for FGET, the enrichment ratio is ≤ 0.25.

As to LQQH, the enrichment ratio was ≤ 0.25.

As for RVRA, the enrichment ratio was found to be 0.896.

With ACTH, the enrichment ratio came out at 2.87.

Regarding RHRR, the enrichment ratio is ≤ 0.25.

With VEVF, the enrichment ratio is ≤ 0.25.

For the variant QMAQ, the enrichment ratio was ≤ 0.25.

As to EAFQ, the enrichment ratio was ≤ 0.25.

With LMQM, the enrichment ratio was ≤ 0.25.

Regarding RGHM, the enrichment ratio was ≤ 0.25.

Turning to TDSI, the enrichment ratio was 8.92.

With EFLA, the enrichment ratio was ≤ 0.25.

Take IMEP: the enrichment ratio was ≤ 0.25.

As to QWRP, the enrichment ratio is ≤ 0.25.

In the case of IEIH, the enrichment ratio is ≤ 0.25.

Consider SKVV, for which the enrichment ratio turned out to be 8.67.

For QWRM, the enrichment ratio is ≤ 0.25.

IGLT: the enrichment ratio is ≤ 0.25.

Take KSVF: the enrichment ratio is ≤ 0.25.

Turning to PAVL, the enrichment ratio is ≤ 0.25.

For the variant HPEP, the enrichment ratio is ≤ 0.25.

In the case of HDID, the enrichment ratio is ≤ 0.25.

Take AKRV: the enrichment ratio is ≤ 0.25.

Consider TKCY, for which the enrichment ratio was found to be 6.97.

For EQKS, the enrichment ratio was ≤ 0.25.

In the case of HKKS, the enrichment ratio was ≤ 0.25.

As to VHML, the enrichment ratio was ≤ 0.25.

As for PECH, the enrichment ratio is ≤ 0.25.

For LIDS, the enrichment ratio is ≤ 0.25.

As to HMAA, the enrichment ratio was ≤ 0.25.

Consider FIVI, for which the enrichment ratio was found to be 0.833.

Consider VRDY, for which the enrichment ratio was ≤ 0.25.

For the variant AIDF, the enrichment ratio was ≤ 0.25.

With SLDV, the enrichment ratio is ≤ 0.25.

SFHS: the enrichment ratio is ≤ 0.25.

Turning to DYGQ, the enrichment ratio is ≤ 0.25.

Turning to YMPC, the enrichment ratio is ≤ 0.25.

As to NTLE, the enrichment ratio was ≤ 0.25.

HFND: the enrichment ratio is ≤ 0.25.

As to SEPR, the enrichment ratio was ≤ 0.25.

For the variant TNWI, the enrichment ratio is ≤ 0.25.

Take DMWF: the enrichment ratio is ≤ 0.25.

Consider MCRG, for which the enrichment ratio is ≤ 0.25.
